# Test results from the supplement of paper PMC3334620.
# Whole data set: some 33,000 sequences, median “E-score (-0.5 to 0.5)” near -0.011, cut for the highest 2% near 0.28. Some of the results follow.
# Target: T1, Gcr1 (UniProt P07261)
# T1 sequence: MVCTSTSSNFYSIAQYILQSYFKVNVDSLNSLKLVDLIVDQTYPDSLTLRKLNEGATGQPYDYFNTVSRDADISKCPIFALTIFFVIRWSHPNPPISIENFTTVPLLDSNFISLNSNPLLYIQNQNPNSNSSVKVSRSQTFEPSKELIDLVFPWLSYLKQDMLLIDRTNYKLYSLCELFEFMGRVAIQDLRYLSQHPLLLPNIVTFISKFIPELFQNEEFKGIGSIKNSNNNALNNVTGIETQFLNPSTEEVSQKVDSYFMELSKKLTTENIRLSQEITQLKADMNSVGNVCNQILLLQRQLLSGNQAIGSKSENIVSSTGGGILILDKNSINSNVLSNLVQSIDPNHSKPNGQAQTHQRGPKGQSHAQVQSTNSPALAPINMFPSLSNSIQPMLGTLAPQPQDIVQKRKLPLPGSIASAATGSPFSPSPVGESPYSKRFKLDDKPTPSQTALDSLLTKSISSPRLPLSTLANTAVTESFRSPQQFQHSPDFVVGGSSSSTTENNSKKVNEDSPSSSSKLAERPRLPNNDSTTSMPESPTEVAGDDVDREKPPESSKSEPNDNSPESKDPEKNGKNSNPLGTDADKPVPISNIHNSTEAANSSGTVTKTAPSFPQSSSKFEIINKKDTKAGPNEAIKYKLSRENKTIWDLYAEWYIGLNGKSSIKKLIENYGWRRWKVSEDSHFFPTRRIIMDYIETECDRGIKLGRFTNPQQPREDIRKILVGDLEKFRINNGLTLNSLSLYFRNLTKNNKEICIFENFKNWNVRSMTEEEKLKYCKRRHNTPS
# Assay: PBM E-score (8-mer binding enrichment) (E-score (-0.5 to 0.5)); higher = stronger / more preferred TF binding; most listed sequences are background and not binding sites
# Settings: protein concentration: 100 nM; construct: GST-full length
# Outline: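 Full-length yeast transcription factors or their DNA-binding domains, GST-tagged and expressed with PURExpress, were applied at about 100-200 nM to universal all-10-mer Agilent arrays. These arrays had been made double-stranded by primer extension on fresh or once-stripped slides. Detection used fluorescent anti-GST, normalisation used masliner, and E-scores for ungapped eight-base words pooled with reverse complements came from the Universal PBM Analysis Suite.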
row,Sequence,PBM E-score
1,TCCCATAA,0.265
2,AACACAGT,-0.3
3,TACCTCGA,-0.0146
4,CAGTAACG,-0.105
5,GCAGAGGA,-0.129
6,ACAGTGGC,0.00948
7,GGGCTGGA,-0.12
8,CGTTCAAG,-0.0619
9,AAAGCCTC,-0.0619
10,AAGGTCGT,-0.219
11,AGGGAGTC,-0.0187
12,GATACCGA,0.0304
13,GAGAGTAC,-0.285
14,GGATACCA,0.33
15,CCCTGCAC,-0.195
16,GCATTAGA,-0.00697
17,GCGCCGAC,0.0685
18,AACTTGAC,0.115
19,CTACGGAA,0.0562
20,CGGAGCTA,-0.0648
21,AGGTGGCA,-0.15
22,TATGCCAA,-0.104
23,CCGGTGAA,0.0699
24,AGTGGAGC,0.32
25,ATAAATCA,0.0483

row,Sequence,PBM E-score
1,CTGCCGTA,-0.173
2,GCACCATA,0.228
3,CTTTTGTC,-0.131
4,TATCACAA,-0.053
5,CCCTTCAC,-0.11
6,GGTTCGTA,0.0401
7,GGTACTCA,0.0227
8,ATAGCGAT,-0.199
9,AAGGCTGT,-0.292
10,AGGGCCTC,0.0587
11,CGCGGTAA,0.108
12,GGTCGAAA,-0.265
13,GACCCTAC,-0.0875
14,ATGGCATG,-0.315
15,AGCTAAAA,-0.0393
16,TAGAGCAA,0.0155
17,ATTCGAAG,-0.0287
18,TCTTTACA,0.203
19,CATTTTAG,0.235
20,CGCTCCAC,0.106
21,ACAGCCTC,-0.114
22,TATGCCGA,-0.231
23,AATGGTGT,0.0428
24,CCTGTCCC,-0.0306
25,ATATTTCC,0.0509

row,Sequence,PBM E-score
1,CAGCTCAG,-0.00015
2,GTCGGCGA,-0.0895
3,TGATCGAA,-0.0926
4,AGGGACTC,-0.128
5,AGGGCGGA,-0.261
6,ACCAAGTG,-0.0673
7,TAACGATA,0.0921
8,ATGTCGTA,0.0794
9,AGAACCTG,0.087
10,GATTAAAC,-0.0725
11,CGTGTCCA,0.119
12,AAGTTCGA,0.0312
13,CATACAGA,-0.00116
14,ATGGAGGC,-0.129
15,CTACGTAA,0.0212
16,ATGCCTGC,0.0636
17,AAATACCC,0.107
18,TATGGCAA,0.0568
19,CTGGAGCA,0.0508
20,GACGGCTC,-0.205
21,CCTATCTC,-0.0566
22,CTTCTGCC,0.133
23,GTTTGGCA,0.164
24,AAGGTTTG,0.0286
25,AGCGACAA,0.0788

row,Sequence,PBM E-score
1,GCCGTCAA,0.0109
2,CCTGATCC,0.0357
3,CGAGCTTA,-0.185
4,AAGCTTGT,-0.144
5,ACAGTACT,0.00651
6,CTCCCGTC,-0.0476
7,AGGGCTCA,-0.298
8,AATCGGGA,0.0209
9,CTATCGAC,-0.0454
10,GCAAAGCA,-0.124
11,GCTCGGCC,-0.179
12,GCCAAACA,0.15
13,TGTGCCAA,0.0762
14,CCTGACAG,-0.178
15,GCCGCACC,0.0375
16,CCAAGCTC,-0.108
17,CACAATAA,0.138
18,CAGTATTC,0.171
19,CAATCGGC,0.015
20,ACAAATTC,0.0316
21,AGTCAACT,-0.00698
22,CTAGTGCA,-0.201
23,CTGTACGC,-0.222
24,GCCGAAAA,0.116
25,TAGGGTAA,0.0774

row,Sequence,PBM E-score
1,CGCCATTC,0.0469
2,ATCATGAT,-0.0482
3,ACGTGAAA,0.174
4,ACCCACTA,0.118
5,GTGCTCAA,0.0993
6,CATCGAGG,-0.118
7,AGTGCCCC,-0.113
8,CCTCCCCC,-0.113
9,GGTCATAA,-0.11
10,ACGTCAAG,0.0115
11,AAGGCACA,-0.0328
12,CCGTGCAC,-0.268
13,AAATGCCA,0.0822
14,AGAAAGTA,0.144
15,GGCGCGAC,0.075
16,ATTATTTA,0.148
17,ATATTCGA,-0.185
18,CCTTACTA,-0.0708
19,ACACTGTA,-0.0721
20,TCCCAGAA,0.22
21,TCTCTCCA,-0.168
22,ATCCTCCC,-0.143
23,CATTACCA,0.0152
24,AGGCGGGG,0.0867
25,CAAGGACC,-0.118

row,Sequence,PBM E-score
1,ACGTGTAA,0.127
2,AAGCGCAG,0.0464
3,ACAGATAA,-0.153
4,CTCCGTTA,-0.134
5,AATCAATC,0.15
6,GATGTTAA,0.275
7,CCCGAATC,0.148
8,TCGCCTCA,-0.0606
9,GTATGCGA,0.291
10,AGCGTACC,-0.17
11,GACGGGGA,0.0449
12,CGCGGGCC,-0.177
13,CCATTCAG,-0.0302
14,CAGATGCC,0.217
15,ACGTGAAC,0.0428
16,ATTGTGGA,0.184
17,CGTGGAAC,-0.113
18,GCTTTGAA,-0.0279
19,TGATCCCA,0.065
20,CACTACAG,0.04
21,GGTAACCA,0.0703
22,CGGAGTAC,-0.243
23,ATGTAGTC,-0.111
24,TCGGTACA,0.0342
25,CGCACTTA,-0.0345

row,Sequence,PBM E-score
1,ACGTCAGG,-0.184
2,CATCGGGG,-0.116
3,AAAGGCTG,-0.022
4,CTGATCAC,0.0306
5,AAGAACGA,0.081
6,CACTTCTA,0.00557
7,CCCGTGAG,-0.163
8,CCCGCAGG,-0.00212
9,TAGTACAA,0.0587
10,AAAAGCCA,-0.164
11,GGATGGGA,-0.104
12,CATGGTAC,-0.0196
13,GCTTGGTA,-0.037
14,AGGTCCTA,-0.0815
15,ATCCTATG,0.0596
16,AACGAGCA,-0.127
17,ATCTCCGG,-0.121
18,ATTAATAA,0.16
19,GCTCCAAA,0.129
20,CTACGCTA,-0.0939
21,AACGTCTC,-0.151
22,AATAGTCA,0.0349
